Results: PubChem BioAssay AID1508624 (National Center for Advancing Translational Sciences (NCATS), 2021)
Out of some 48,000 compounds screened, about 120 (0.25%) were called active. Roughly 4% stayed inconclusive and do not appear here. The call rests on the fitted dose curve; in most records, active means well fitted activation curve with a large enough effect; inconclusive means small, poorly fitted or top-dose-only effect, or another doubt; inactive means no such curve, though single readings can be large or run the other way. This is one part of the list.

Test: Primary qHTS for Identification of Small Molecule Activators of Huntingtin-Antisense Promoter Activity; further: nearly all actives have a fitted effect of over 55% in size
Details: HEK293 HTT-AS promoter firefly luciferase reporter, 24 h; series mostly up to 57.5 µM; activity change, positive = activation: at the top concentration
Method in brief: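 Firefly luciferase signal from promoter-reporter HEK293 cells was scaled between vehicle (0%) and zero RLU (-100%). Compounds were tested at final concentrations of up to 57.5 uM over 24 h at 37 degrees C. PTC124 at 50 uM final served as control inhibitor.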

SMILES	activity change, positive = activation
O=C(CCS(=O)(=O)c1ccccc1)N(Cc1cccnc1)c1nc2c(Cl)cccc2s1	inactive: -6.61%
O=C(NCCCN1CCN(c2ccc(F)cc2)CC1)C1COc2ccccc2C1 (stereo not drawn)	inactive: -21.5%
CCc1ccc(NC(=O)c2ccc3c(=O)n4nc(Nc5ccccc5C)sc4nc3c2)cc1	inactive: -55.7%
COc1ccc(Cl)cc1NC(=O)Cn1c(=O)n(Cc2nc(C)no2)c(=O)c2ccccc21	inactive: -18.7%
Clc1ccc(Nc2c(-c3cccs3)nc3ccc(Cl)cn23)cc1	inactive: 10.2%
COc1ccc(CCNC(=O)Cn2c(=O)cc(C(F)(F)F)c3c(C)nn(C)c32)cc1OC	inactive: -19.6%
CCc1cccc(NC(=O)c2cc3c(=O)[nH]c4ccccc4c3n2C)c1	inactive: -8.4%
Cc1ccc(C)c(CSC2=NC(C)(C)Nc3ccccc32)c1	inactive: -14%
CCOC(=O)c1sc2nc(C)n(CC(=O)Nc3cccc(Cl)c3)c(=O)c2c1C	inactive: -7.58%
CC(=O)c1cccc(NC(=O)CSc2nnc3ccc(-c4ccc(Cl)cc4)nn23)c1	inactive: -19.9%
COc1ccc(CN(C)S(=O)(=O)c2nnc(NC(=O)C(C)C)s2)cc1OC	inactive: -41.9%
O=C(O)c1ccccc1O	inactive: -0.422%
COc1ccccc1NC(=O)C1=C(C)Nc2nc(SCc3ccccc3F)nn2C1c1cccnc1 (stereo not drawn)	inactive: -11.5%
Cc1ccc(Cl)cc1NC(=O)c1sc2nc(-c3ccccc3)cn2c1C	inactive: 4.35%
CCOc1ccc(NC(=O)c2cc(=O)c3cc(CC)ccc3o2)cc1	inactive: 13.9% [at 11.5 µM, percent change from vehicle, -100% = no light]
Cc1cccc(NC(=O)CSc2nc(=O)n(Cc3ccncc3)c3c2CCC3)c1C	inactive: -11.6%
Cc1ccc(-c2noc(-c3ccccc3NC(=O)C3CC(=O)N(c4cccc(C)c4)C3)n2)cc1 (stereo not drawn)	inactive: 22.7%
CCc1ccc(C2=C(C)C(N3CCC(C(=O)Nc4cccc(OC)c4)CC3)=NS2(=O)=O)cc1	inactive: -22.5%
Oc1ccc(/C=C/c2nc(-c3ccccc3O)n(-c3ccccc3)n2)c(O)c1	inactive: -17%
CCOC(=O)c1cccc(NS(=O)(=O)c2cc(-c3cnc(C)o3)ccc2OC)c1	inactive: -28.4%
CCCOc1ccc(C2C(=O)N(C3CCCCC3)CC(=O)N2CCc2ccccc2)cc1OC (stereo not drawn)	inactive: -8.37%
CN(C)C(=O)c1ccc(NC(=O)Cn2nc(-c3ccccc3)c3ccccc3c2=O)cc1	inactive: -2.85%
CCOC(=O)c1c(NC(=O)COc2cc(C)ccc2C(C)C)sc2c1CCCC2	inactive: -4.68%
CCCCNC(=O)C(CC)Sc1nnc(-c2ccc(F)cc2)c(-c2ccc(F)cc2)n1 (stereo not drawn)	inactive: -3.19%

SMILES	activity change, positive = activation
Cc1cccc(NC(=O)c2c(NC(=O)c3cccs3)sc3c2CCC(C)C3)c1 (stereo not drawn)	inactive: 6.32%
COc1ccccc1N1CCN(C(CNC(=O)C(=O)NCCN(C)C)c2cccnc2)CC1 (stereo not drawn)	inactive: -4.84%
CC1=C(c2ccc(C(C)C)cc2)S(=O)(=O)N=C1N1CCN(c2ccc(F)cc2)CC1	inactive: -13.8%
O=C(CCCc1ccccc1)NC1CC(=O)N(c2ccc(Cl)cc2)C1 (stereo not drawn)	inactive: -10.1%
COc1ccccc1C(=O)n1nc(-c2cccnc2)nc1NCc1ccccc1	inactive: 13.4%
Cc1ccc(Cl)cc1NC(=O)c1ccc(NC(=O)N2CCSc3ncccc32)cc1	inactive: -14.8%
Cc1cccc(-c2nc3c4ccccc4nc(N4CCN(c5ccc(F)cc5)CC4)n3n2)c1	inactive: -4.11%
CC1=Nc2cc(C(=O)NC3CCCCC3)ccc2Sc2ccc(Cl)cc21	inactive: -38.3%
COc1ccccc1NC(=O)CSC1=Nc2ccccc2C2=NC(CC(=O)NCCc3ccccc3)C(=O)N12 (stereo not drawn)	inactive: -26.6%
CCOc1ccc(Nc2c(S(=O)(=O)c3ccc(C)cc3)cnc3cc(OC)c(OC)cc23)cc1	inactive: -34.4%
COc1ccc(CCNC(=O)c2ccc3c(c2)sc2nc(-c4ccc(C)cc4)cn23)cc1OC	inactive: -4.46%
CCc1ccccc1NC(=O)Cn1nnc(-c2nc(-c3ccncc3)no2)c1N	inactive: -6.04%
COc1cc(NS(=O)(=O)c2ccc3c(c2)CC(=O)N3)cc(OC)c1OC	inactive: -10.8%
Cc1ccc(NC(=O)C2CCN(S(=O)(=O)c3ccc4c(c3)CCCC(=O)N4)CC2)c(Cl)c1	inactive: -25.8%
O=C(NC1(C(F)(F)F)C(=O)Nc2c1c(=O)[nH]c(=O)n2CCc1ccccc1)c1ccc(Cl)cc1 (stereo not drawn)	inactive: -1.65%
CCCCC(=O)Nc1ccc2nc(SCC(=O)N3CCOCC3)sc2c1	inactive: -4.46%
CCOc1ccc(NC(=O)CN2CCN(CC(=O)Nc3ccc(N(CC)CC)cc3)CC2)cc1	inactive: 3.58%
COc1cc(NS(=O)(=O)c2ccc3[nH]c(=O)[nH]c3c2)cc(OC)c1	inactive: -12.1%
COc1cccc2c1Oc1ncccc1N(c1ccc(C(=O)NCc3ccccc3C)s1)C2	inactive: -24.5%
Cc1ccc(NC(=O)c2c(C)oc3ncn(C)c(=O)c23)cc1F	inactive: 11.7%
O=C(CCNS(=O)(=O)c1ccc2c(c1)CCCC(=O)N2)Nc1cccc(Cl)c1	inactive: -13.2%
O=C(NCCc1ccccc1)c1ccc(CS(=O)Cc2ccc(Cl)cc2)o1 (stereo not drawn)	inactive: -2.72%
COc1ccc(C(=O)c2c(N)c(-c3nc(-c4ccc5c(c4)OCO5)cs3)c3ccccn23)cc1	inactive: -4.63%
COC(=O)Cn1c(C2CC(=O)N(c3c(C)cccc3C)C2)nc2ccccc21 (stereo not drawn)	inactive: -6.23%

SMILES	activity change, positive = activation
Cc1cc(NC(=O)CCc2nc3cccnc3n2-c2ccccc2)ccc1Br	inactive: -39%
O=C(Nc1ccc(F)cc1F)C1CCN(c2ncccn2)CC1	inactive: -7.28%
O=S(=O)(c1ccc(C2CCCCC2)cc1)N1CCN(c2ccc(Cl)c(Cl)c2)CC1	inactive: -8.34%
Cc1ccccc1NC(=O)Cn1cc(C(=O)c2ccco2)c2ccccc21	inactive: -24.2%
Cc1ccc(C)c(N2CCN(c3ncnc4c3nc3n4CCCC3)CC2)c1	inactive: -17.6%
CCc1ccc2nc(N(Cc3cccnc3)C(=O)c3ccc(C#N)cc3)sc2c1	inactive: 16.9%
Cc1ccc(N2CCN(C(=O)c3nn(C)c4c3CS(=O)(=O)c3ccccc3-4)CC2)c(C)c1	inactive: -26.9%
CC(=O)Nc1ccc(NC(=O)c2oc3c(c2C)-c2nn(Cc4ccccc4Cl)cc2CC3)cc1	inactive: -39.3%
CCCCC(=O)Nc1ccc2nc(SCC(=O)N3CCc4ccccc43)sc2c1	inactive: -32.3%
O=C(CCn1c(=O)c2sccc2n(Cc2ccccc2F)c1=O)NCc1ccc2c(c1)OCO2	inactive: -9.27%
CCOC(=O)c1ccc(NC(=O)Cn2nc3c4ccccc4n(Cc4cccc(F)c4)cc-3c2=O)cc1	inactive: -7.53%
Cc1cccc(NC(=O)Cn2nc(-c3ccccc3)c3cnc4ccccc4c32)c1	inactive: -19.4%
CCOc1ccc(-n2cc(-c3ccccc3)c3c(NCCc4ccccc4)ncnc32)cc1	inactive: -14.6%
CCc1cccc(NC(=O)CCn2c(=O)c3cccn3c3cccnc32)c1	inactive: -1.43%
Cc1ccc(Nc2ccc3cc(S(=O)(=O)N4CCC(C)CC4)ccc3n2)c(Cl)c1	inactive: -23.7%
CCOC(=O)N1CCc2c(sc3c2c(=O)n(Cc2ccccc2)c(=O)n3CC(=O)Nc2cccc(CC)c2)C1	inactive: -18.7%
CCN(CC)CCOc1ccc(Nc2ncc3cc(-c4c(Cl)cccc4Cl)c(=O)n(C)c3n2)cc1	inactive: -33.4%
Cc1noc(-c2ccc(-c3noc(-c4ccc(F)cc4)n3)cc2)n1	inactive: -1.24% [at 11.5 µM, percent change from vehicle, -100% = no light]
O=C(CCCn1c2ccccc2c(=O)c2ccccc21)Nc1cccc(Cl)c1	inactive: -35.2%
CCOC(=O)c1cccc(NC(=O)CCSCCc2ccccn2)c1	inactive: -10.9%
COc1cccc(CNC(=O)c2cc3c(-c4ccccc4F)nn(C)c3s2)c1	inactive: -37.8%
COc1cc(C2Nc3ccccc3-c3cc(C)nn32)ccc1O (stereo not drawn)	inactive: -7.09%
Cc1ccc(NC(=O)Cn2nc(-c3ccccc3)nc(Cc3ccc(Cl)cc3)c2=O)cc1	inactive: 1.43%
Cc1csc2nc(COC(=O)c3ccccc3NC(=O)c3cccc(Br)c3)cc(=O)n12	inactive: -45.3%

SMILES	activity change, positive = activation
O=C(NCCc1ccc(Cl)cc1)c1c2c(nc3ccccc13)C(=O)N(C1CCCCC1)C2	inactive: -18.4%
O=S(=O)(c1ccc(Br)s1)N1CCN(c2cccc(C(F)(F)F)c2)CC1	inactive: -21.8%
COCCn1c(SCC(=O)Nc2cc(Cl)ccc2OC)nc2c([nH]c3ccccc32)c1=O	inactive: -20.5%
Cc1cccc(Cn2cc(S(=O)(=O)c3cccc(Cl)c3)c(=O)c3cc(F)c(N4CCOCC4)cc32)c1	inactive: -10.4%
O=C1c2ccccc2C(=O)C1c1ccc(Br)cc1	inactive: 25.6%
CCOC(=O)c1c(C)[nH]c(C)c1S(=O)(=O)N(C)CC(=O)Nc1ccc(OC)cc1	inactive: -0.2%
COc1ccc(CC(=O)Nc2c(C(=O)N3CCN(c4ccccc4)CC3)oc3ccccc23)cc1OC	inactive: -29.5%
Cn1c(=O)c2nc(SCC(=O)Nc3ccc(OC(F)(F)F)cc3)n(C)c2n(C)c1=O	inactive: 8.02%
CCN(CC)c1ncnc2c1cnn2-c1cc(Cl)ccc1C	inactive: 6.26%
COc1ccc(-c2nc(CNC(=O)NC3CCCCC3)c(C)o2)cc1	inactive: -28.2%
COc1cc(C(CC(=O)Nc2ccc(C)c(F)c2)N2Cc3ccccc3C2=O)cc(OC)c1OC (stereo not drawn)	inactive: -14.2%
CCOc1ccccc1NC(=O)C1CCN(S(=O)(=O)c2c(C)noc2/C=C/c2ccco2)CC1	inactive: -24.4%
O=C1OCC2=C1C(c1cccc(Cl)c1)CC(=O)N2c1ccc(C(F)(F)F)cc1 (stereo not drawn)	inactive: -20.1%
COc1cc(OC)cc(-c2cc3nc(C)c(CCC(=O)NCCc4cccc(C)c4)c(C)n3n2)c1	inactive: -70.8%
COc1cc(NC(=O)Cn2nc(C(F)(F)F)c3c2CCC3)cc(OC)c1OC	inactive: -39.2%
COc1ccc(OC)c(CNC(=O)c2ccc(N3Cc4ccccc4Oc4ncccc43)s2)c1	inactive: -21.2%
O=C(CCn1c(=O)c2ccccc2n(CC(=O)Nc2cccc(F)c2)c1=O)NCCc1ccccc1	inactive: -5.06%
CCn1c(-c2nonc2N)nc2c(C#CC(C)(C)O)ncc(OC[C@H]3CCCNC3)c21	inactive: -26.4%
CC1CCCN(CCCNC(=O)c2cc(Sc3ccc(F)cc3)nc3ccccc23)C1 (stereo not drawn)	inactive: -23.6%
CCc1ccc(NC(=O)CSc2ccnc(=O)[nH]2)cc1	inactive: 14.2%
O=C(NCCc1ccccc1)c1ccc2c(c1)N(Cc1ccc(Cl)cc1)C(=O)CS2	inactive: -33.3%
